{"source": "the antibiotic and cytotoxicity screens of Wong et al. (2023)", "key": {"HSkMC": {"system": "HSkMC", "assay": "cytotoxicity call (relative viability < 0.9)", "details": "10 µM"}, "HepG2": {"system": "HepG2", "assay": "cytotoxicity call (relative viability < 0.9)", "details": "10 µM"}, "S. aureus RN4220": {"system": "S. aureus RN4220", "assay": "growth inhibition call (relative growth <= 0.2)", "details": "50 µM"}}, "note": "The list shows a part of the results."}
{"smiles": "C[C@H](CO)N1C[C@H](C)[C@@H](CN(C)C(=O)Nc2ccc(C(F)(F)F)cc2)Oc2ccc(NC(=O)Cc3cn(C)c4ccccc34)cc2CC1=O", "values": [{"measurement": "cytotoxicity call", "setting": "HSkMC", "result": "inactive"}, {"measurement": "cytotoxicity call", "setting": "HepG2", "result": "inactive"}, {"measurement": "growth inhibition call", "setting": "S. aureus RN4220", "result": "inactive"}]}
{"smiles": "C[C@@H]1CN([C@H](C)CO)C(=O)c2cc(-c3ccc(F)cc3)cnc2O[C@H]1CN(C)C(=O)Cc1ccccn1", "values": [{"measurement": "cytotoxicity call", "setting": "HSkMC", "result": "inactive"}, {"measurement": "cytotoxicity call", "setting": "HepG2", "result": "inactive"}, {"measurement": "growth inhibition call", "setting": "S. aureus RN4220", "result": "inactive"}]}
{"smiles": "O=C1O[C@H](CO)[C@@H](O)[C@H](O)[C@H]1O", "values": [{"measurement": "cytotoxicity call", "setting": "HSkMC", "result": "inactive"}, {"measurement": "cytotoxicity call", "setting": "HepG2", "result": "inactive"}, {"measurement": "growth inhibition call", "setting": "S. aureus RN4220", "result": "inactive"}]}
{"smiles": "C[C@@H]1CN([C@@H](C)CO)C(=O)c2cc(C#Cc3cccc(F)c3)cnc2O[C@H]1CN(C)C(=O)C1CCOCC1", "values": [{"measurement": "cytotoxicity call", "setting": "HSkMC", "result": "inactive"}, {"measurement": "cytotoxicity call", "setting": "HepG2", "result": "inactive"}, {"measurement": "growth inhibition call", "setting": "S. aureus RN4220", "result": "inactive"}]}
{"smiles": "Cn1c(=O)c2c(ncn2CCCCn2cnc3c2c(=O)n(C)c(=O)n3C)n(C)c1=O", "values": [{"measurement": "cytotoxicity call", "setting": "HSkMC", "result": "inactive"}, {"measurement": "cytotoxicity call", "setting": "HepG2", "result": "inactive"}, {"measurement": "growth inhibition call", "setting": "S. aureus RN4220", "result": "inactive"}]}
{"smiles": "C[C@@H]1CCCCO[C@@H](CN(C)C(=O)Nc2cccc3ccccc23)[C@@H](C)CN([C@H](C)CO)C(=O)c2cc(N(C)C)ccc2O1", "values": [{"measurement": "cytotoxicity call", "setting": "HSkMC", "result": "inactive"}, {"measurement": "cytotoxicity call", "setting": "HepG2", "result": "inactive"}, {"measurement": "growth inhibition call", "setting": "S. aureus RN4220", "result": "inactive"}]}
{"smiles": "C[C@H](CO)N1C[C@H](C)[C@H](CN(C)S(=O)(=O)c2ccc(F)cc2)Oc2c(NC(=O)C3CC3)cccc2C1=O", "values": [{"measurement": "cytotoxicity call", "setting": "HSkMC", "result": "inactive"}, {"measurement": "cytotoxicity call", "setting": "HepG2", "result": "inactive"}, {"measurement": "growth inhibition call", "setting": "S. aureus RN4220", "result": "inactive"}]}
{"smiles": "O=C(N[C@H]1CCN(C(=O)c2cc(C(F)(F)F)cc(C(F)(F)F)c2)[C@H](Cc2ccc(Cl)cc2)C1)c1ccnc2ccccc12", "values": [{"measurement": "cytotoxicity call", "setting": "HSkMC", "result": "active"}, {"measurement": "cytotoxicity call", "setting": "HepG2", "result": "inactive"}, {"measurement": "growth inhibition call", "setting": "S. aureus RN4220", "result": "inactive"}]}
{"smiles": "CC(C)NC(=O)Nc1ccc2c(c1)C(=O)N([C@H](C)CO)C[C@H](C)[C@H](CN(C)S(=O)(=O)c1ccccc1)O2", "values": [{"measurement": "cytotoxicity call", "setting": "HSkMC", "result": "inactive"}, {"measurement": "cytotoxicity call", "setting": "HepG2", "result": "inactive"}, {"measurement": "growth inhibition call", "setting": "S. aureus RN4220", "result": "inactive"}]}
{"smiles": "C[C@@H]1CN([C@@H](C)CO)C(=O)Cc2cc(NS(=O)(=O)c3cccs3)ccc2O[C@@H]1CN(C)C(=O)Nc1cccc2ccccc12", "values": [{"measurement": "cytotoxicity call", "setting": "HSkMC", "result": "inactive"}, {"measurement": "cytotoxicity call", "setting": "HepG2", "result": "inactive"}, {"measurement": "growth inhibition call", "setting": "S. aureus RN4220", "result": "inactive"}]}
{"smiles": "COc1ccc(NC(=O)N(C)C[C@@H]2Oc3c(NS(=O)(=O)c4c(C)noc4C)cccc3C(=O)N([C@@H](C)CO)C[C@@H]2C)cc1", "values": [{"measurement": "cytotoxicity call", "setting": "HSkMC", "result": "inactive"}, {"measurement": "cytotoxicity call", "setting": "HepG2", "result": "inactive"}, {"measurement": "growth inhibition call", "setting": "S. aureus RN4220", "result": "inactive"}]}
{"smiles": "COc1ccc(CN(C)C[C@H]2OCCCC[C@@H](C)Oc3ccc(NC(=O)NC4CCCCC4)cc3C(=O)N([C@H](C)CO)C[C@@H]2C)cc1", "values": [{"measurement": "cytotoxicity call", "setting": "HSkMC", "result": "inactive"}, {"measurement": "cytotoxicity call", "setting": "HepG2", "result": "inactive"}, {"measurement": "growth inhibition call", "setting": "S. aureus RN4220", "result": "inactive"}]}
{"smiles": "COc1ccc(NC(=O)Nc2ccc3c(c2)CC(=O)N([C@@H](C)CO)C[C@H](C)[C@H](CN(C)Cc2ccc(Oc4ccccc4)cc2)O3)cc1", "values": [{"measurement": "cytotoxicity call", "setting": "HSkMC", "result": "inactive"}, {"measurement": "cytotoxicity call", "setting": "HepG2", "result": "active"}, {"measurement": "growth inhibition call", "setting": "S. aureus RN4220", "result": "inactive"}]}
{"smiles": "Cn1cnc(CCNC(=O)C[C@@H]2CC[C@@H]3[C@H](COC[C@@H](O)CN3C(=O)Nc3ccc(Cl)cc3)O2)c1", "values": [{"measurement": "cytotoxicity call", "setting": "HSkMC", "result": "inactive"}, {"measurement": "cytotoxicity call", "setting": "HepG2", "result": "inactive"}, {"measurement": "growth inhibition call", "setting": "S. aureus RN4220", "result": "inactive"}]}
{"smiles": "C[C@@H]1CN([C@H](C)CO)S(=O)(=O)c2ccc(C3=CCCCC3)cc2O[C@@H]1CN(C)S(=O)(=O)c1cn(C)cn1", "values": [{"measurement": "cytotoxicity call", "setting": "HSkMC (human skeletal muscle cells)", "result": "inactive"}, {"measurement": "cytotoxicity call", "setting": "HepG2", "result": "inactive"}, {"measurement": "growth inhibition call", "setting": "S. aureus RN4220", "result": "inactive"}]}
